Consider 45 sequences from the supplement of paper PMC11417369.

± gives the standard deviation of the averaged measurements. The list shows a part of the results.

The subject of this assay is PfAP2-LT AP2 domain (GST-tagged). The assay can be described thus: gcPBM binding intensity (ln(normalized median fluorescence intensity)); higher = stronger DNA binding. In outline:
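Probes on an Agilent 4 × 180k array were primer-extended, double-stranded and 36 bp long, taken from intergenic genomic regions, with negative controls added. GST-tagged P. falciparum DNA-binding domains from E. coli, about 25 μg on average, were applied to the array for 1 h in 1× PBS containing 1% milk, 0.2 mg/ml BSA, 0.5% salmon testes DNA and 0.03% Triton X-100. Binding intensity, obtained after Alexa488 anti-GST antibody detection and a 488 nm scan, is the highest Masliner-normalised natural-log median intensity across replicate spots of either probe orientation.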
Consider “TATATATATATTTTAACACACACATATATATATTTA [CACACA_site8892]”, for which the “gcPBM binding intensity (ln)” value turned out to be 9.07 ± 0.26.
The value for “ATGCTTTTTAAATGATTGCACTAGATTGTAATATGT [GTGCAC_site9666]” was 8.84 ± 0.35; that for “ATATATATATATTGCACACACAATTATTATTATTAT [CACACA_site2299]” was 9.41 ± 0.3; that for “TGTGCTATATTCATATGTACATATAATTATTATATA [XGTACX_site3549]” was 8.76 ± 0.42.
The value for “ATAAAATAAAAGTGTACACAAGAAAATATGTTATGT [CACACA_site6033]” was 9.34 ± 0.44.
The value for “AAAAATTACCTGACTTGTACATAATTTAAGAACAAT [XGTACX_site6233]” was 8.72 ± 0.27; that for “GGTATATTAAAATAGGTGCATAAAACTAAGAGAAAA [GTGCAC_site9781]” was 8.9 ± 0.49.
As to “ACGTTTGATACACATAAAGTTTTCCTTTGAATGTAC [CACACA_negctrl_site106]”, the “gcPBM binding intensity (ln)” value amounted to 8.86 ± 0.45.
As for “ATAATATATTTATAATGTACATAAGAACAAATTAAA [XGTACX_site1745]”, the “gcPBM binding intensity (ln)” value is 8.7 ± 0.43.
The value for “AATAATACACAATTTTGTACGTATTTAAAATATATT [XGTACX_site45]” was 8.73 ± 0.44.
For the sequence “AATTAAAAACATTTCACACATAAAAATGAAATATAT [CACACA_site5199]”, the “gcPBM binding intensity (ln)” value came out at 8.68 ± 0.45.
TATTTATGAGAAATAGTGCAAAGATATGATCTTTAA: the “gcPBM binding intensity (ln)” value was found to be 8.5 ± 0.45.
The value for “TAAAATATATAATAATGTACATATTTTTATTTAGGA [XGTACX_site4987]” was 8.41 ± 0.55; that for “AAATTATAATATAATACACACATAAAAAAAAAATCA [CACACA_site3634]” was 9 ± 0.44; that for “TATATATATATATATTGTACACATATATATTTACGA [XGTACX_site4791]” was 9.21 ± 0.38.
The same measure for “TGATTCTTTTGTATCACACACACTTAGTTTAATTTT [CACACA_site2404]”: 9.24 ± 0.62; for “ATAATAAAAATAAGAGAATAAAAATGCAATTTAATG [CACACA_negctrl_site878]”: 8.76 ± 0.48.
The value for “TCCTTTATTTTTAAATGTACAAATATTATCTCCTCA [XGTACX_site5856]” was 8.58 ± 0.51; that for “ACTTGACACGGACACACACACATATATAAAAAAAAA [CACACA_site4576]” was 9.53 ± 0.51; that for “TTTTTTTATTATCATGCACACATTTTTTTTTTTTAC [CACACA_site2253]” was 9.14 ± 0.43.
Take “AACTCACATAAATTCACACAAATGTATATTCATATA [CACACA_site4554]”: the “gcPBM binding intensity (ln)” value came to 8.73 ± 0.38.
The value for “ATTGATCGGATAAAATGTACAAATATATATATATAT [XGTACX_site7345]” was 9.34 ± 0.23.
Turning to “ATTTATAATGTGTATACACACATATATAGATTTGCT [CACACA_site6440]”, the “gcPBM binding intensity (ln)” value was 9.12 ± 0.36.
The same measure for “TCTTTTTTTATTTTATTTTTTTTTTTTAAATAATTC [TGCATGCA_negctrl_site372]”: 8.39 ± 0.47; for “CATATTAATATTATGGGTACATATAAATTTACATTC [XGTACX_site687]”: 8.7 ± 0.46.
Take “AAAACATAAATACATACACACATAATATATATTAAT [CACACA_site109]”: the “gcPBM binding intensity (ln)” value is 9.32 ± 0.38.
The value for “ATTATAATATTGTTATGTACATAAAAATTATTGAAT [XGTACX_site4476]” was 8.81 ± 0.35; that for “AAAAAATAATAAATCACACATATTATATATATATAT [CACACA_site5838]” was 8.94 ± 0.25; that for “AACATGAAAGATAGCAAAAAAAAAAAAAAAAAAAAA [TGCATGCA_negctrl_site607]” was 8.37 ± 0.3.
In the case of “TTGAAGTGTACTATTTTATATATATATATACATTTT [CACACA_negctrl_site224]”, the “gcPBM binding intensity (ln)” value amounted to 9.1 ± 0.48.
For the sequence “TAGAAATATATTTATTGTACATTGTATATATTATAT [XGTACX_site7584]”, the “gcPBM binding intensity (ln)” value is 8.64 ± 0.38.
The value for TAATGTTCCTATATAGTGCAATTATGTTTTATTTCT was 8.88 ± 0.45; that for “TACGATGTTTTAAAATGTACATAAAAGTCACATAAG [XGTACX_site3297]” was 8.54 ± 0.45.
For “TTTTAATTTTTAAGACGTACTATCATTTGATAATAA [XGTACX_site3942]”, the “gcPBM binding intensity (ln)” value came out at 8.26 ± 0.47.
The same measure for “ATTATGTGCCAATACACACACACATCTATATTTATA [CACACA_site6359]”: 9.67 ± 0.18; for “TCTTTTTTTTTTACTAGTACTTAAAAAAAAAATATG [XGTACX_site4395]”: 8.28 ± 0.55.
On to “TATTTATAAATATACGCACACATTAATATATATATA [CACACA_site3969]”, for which the “gcPBM binding intensity (ln)” value was 8.98 ± 0.42.
The same measure for “AGTATGTAAATGTGCCATATATATATTAAATACATA [CACACA_negctrl_site14]”: 8.86 ± 0.42; for “GTTGGTAGGCGGTACGGTACACGTAGTATTTTTCTT [XGTACX_site4213]”: 8.95 ± 0.49; for “ATATTATTTATTTTTAAATTATATTGATTATTTTTT [CACACA_negctrl_site451]”: 8.44 ± 0.63.
The same measure for “TTTTTTTCATATATATGTACATAATTATATATGCAT [XGTACX_site3257]”: 8.9 ± 0.45.
The value for “TTTAAAAATATTTCACGTACGCATTTTAAAAAGTAT [XGTACX_site8026]” was 8.52 ± 0.39.
With “AAATAGTAAGAGATGGTGCGTTTCCTTTTTTTTTTT [GTGCAC_site9663]”, the “gcPBM binding intensity (ln)” value is 8.82 ± 0.4.
In the case of “CGTGGGAGCAGACACACACACACACCCATATATATA [CACACA_site334]”, the “gcPBM binding intensity (ln)” value was found to be 9.99 ± 0.5.
In the case of “TTAATTATATGGTAAACAAATAAATGTGAAAGGAAA [XGTACX_negctrl_site389]”, the “gcPBM binding intensity (ln)” value is 8.75 ± 0.45.
